In the supplement of paper PMC4466236:
The full ranking holds about 33,000 sequences; the median of “E-score (dimensionless, -0.5 to 0.5)” is about -0.058, and the highest 2% start at about 0.35. The list shows a part of the results.

tested on: MvaT; assay: PBM 8-mer E-score (mean of HK and ME arrays) (E-score (dimensionless, -0.5 to 0.5)); higher = stronger relative binding preference; most listed sequences are background and not binding sites
Procedure, shortened: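 Full-length P. aeruginosa MvaT, with glutathione S-transferase fused to its N-terminus (cloned into pTH6838 by isothermal assembly), was tested by protein binding microarray using a previously described protocol. Two universal double-stranded 60-mer arrays (ME and HK) were used, each with a constant 25-mer primer region and a variable 35-mer region covering all 8-mers. The rank-based 8-mer E-score (-0.5 to 0.5) is the mean of the two arrays, parsed with a custom Python script.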

| Sequence | PBM 8-mer E-score |
| --- | --- |
| CAGCCATA | 0.00647 |
| CACAGAAC | -0.155 |
| GTGTCTCA | -0.134 |
| CTAGGGAC | -0.298 |
| AGGAGAAG | -0.116 |
| CTTGTCAA | -0.126 |
| AATAATAT | 0.453 |
| AGCCATTC | -0.0191 |
| AGTACGAC | 0.0103 |
| CCACATGG | -0.261 |
| CACGTGTA | -0.0409 |
| GACATCTA | 0.0712 |
| AGGCGCCT | -0.21 |
| ATGAGAAG | 0.00319 |
| AGCTGTTG | -0.0862 |
| TCGAGTAA | 0.105 |
| ACGCGAGC | -0.0351 |
| CAAACTGG | -0.021 |
| GAGGTCCA | -0.236 |
| TTGGAAAA | 0.114 |
| AGGCAATA | 0.0479 |
| CTTGGGTC | -0.169 |
| ACGGGGAT | -0.00987 |
| AACGAATA | 0.147 |
| CACCCTCG | -0.138 |

| Sequence | PBM 8-mer E-score |
| --- | --- |
| GCAGTAGC | -0.117 |
| ATGATCCG | 0.0148 |
| AGTGGTAC | -0.00144 |
| CCTGCCAG | -0.294 |
| ACGTTCCG | -0.172 |
| GTTCCGGA | -0.0817 |
| AGAGGATA | 0.0844 |
| AGAATAGG | -0.0847 |
| AAAACGAC | 0.0691 |
| ATGCAGCG | -0.132 |
| CAAAGGTG | -0.183 |
| GGCCAGCA | -0.243 |
| CCCCCCGC | -0.255 |
| GGCAGGCC | -0.31 |
| GCTGTGCA | -0.156 |
| CTTTCCTC | -0.139 |
| GCGACCCA | -0.225 |
| AATCCTAT | 0.0221 |
| CCAGGTTC | -0.21 |
| CCCAATCC | -0.26 |
| CCATCAGC | -0.219 |
| GGAGACAA | -0.172 |
| ATGTATGC | 0.132 |
| CCGTACGC | -0.105 |
| ATCCCCAT | -0.272 |

| Sequence | PBM 8-mer E-score |
| --- | --- |
| CAAGGGAG | -0.251 |
| AAGCCGGT | -0.0176 |
| GCGGGAGC | -0.292 |
| CGTCCTAG | -0.236 |
| AAAGACTA | 0.0896 |
| TATTGTGA | 0.147 |
| AGCTTCGC | -0.24 |
| ACTAGACA | 0.0835 |
| CGTAGATC | -0.27 |
| ATCTAATA | 0.321 |
| CCCCATCA | -0.158 |
| CAGCTATC | -0.264 |
| AACGTCGG | -0.221 |
| ATAGCTTA | 0.133 |
| CATGATGC | -0.011 |
| ATGGCTAG | -0.0701 |
| CCGTGCGC | -0.2 |
| AGGAGACC | -0.273 |
| CGTGTGCC | -0.144 |
| GCAGCCCC | -0.208 |
| ATGGCGCG | -0.156 |
| ACCTTACG | -0.123 |
| GGATATTA | 0.332 |
| AGATGCAT | 0.142 |
| CAACTCAG | 0.128 |

| Sequence | PBM 8-mer E-score |
| --- | --- |
| AACCGAGA | -0.147 |
| AGTAATGC | 0.166 |
| CTCCCCAC | -0.296 |
| CACGCGGG | -0.257 |
| CGAGGCTC | -0.144 |
| CTAGCGGA | -0.0407 |
| GTAAACCA | 0.151 |
| ATTCGTAG | 0.0187 |
| ATTTTCAG | 0.142 |
| TCGACAAA | 0.123 |
| GCTAGCCC | -0.143 |
| ATCCTCTA | 0.0674 |
| GGTAAGAA | 0.131 |
| TACGTACA | 0.0981 |
| AAGTCAGG | 0.0458 |
| ACTTGCGG | 0.0733 |
| ACCAGCTG | -0.119 |
| AAGATAGA | 0.0659 |
| CAGGTATA | 0.101 |
| CATATCAA | 0.174 |
| GGCCCCAA | -0.195 |
| CGCTAGGC | -0.268 |
| AGCCGAAT | -0.149 |
| AACGCTGG | -0.0857 |
| ACGTATTC | 0.118 |

| Sequence | PBM 8-mer E-score |
| --- | --- |
| AGGTACGC | -0.211 |
| CCTTATCG | -0.112 |
| GCTTCGCC | -0.274 |
| CTTTTGCA | -0.04 |
| CACCCAAA | 0.0556 |
| ACCAATAA | 0.302 |
| CTGCGTAA | -0.0347 |
| CCATAGGA | -0.168 |
| TCCAGGAA | 0.00133 |
| AAATTCAG | 0.207 |
| GTGCAAAA | -0.0129 |
| AGTCAGCG | -0.00964 |
| GAACCACC | -0.171 |
| ATCCAGAG | -0.138 |
| GTCGGAGA | -0.273 |
| ACTGCTGC | -0.128 |
| TCCCCTAA | -0.157 |
| TCGCAAGA | 0.0435 |
| CTTGACGC | -0.229 |
| ATTGAGCA | 0.0361 |
| AAGCTGTA | -0.0137 |
| GTACAAGA | 0.038 |
| AGCTGTTA | -0.0546 |
| AGAACCCT | -0.274 |
| CAAATAGA | 0.264 |

| Sequence | PBM 8-mer E-score |
| --- | --- |
| CTCCTAGA | -0.155 |
| AAAATGAC | 0.0284 |
| ACCCTCGA | -0.218 |
| CGGAGGGC | -0.389 |
| ACATTAAT | 0.382 |
| CTTCAATC | -0.138 |
| TCCGACGA | -0.00942 |
| CAATTCCC | 0.0755 |
| CATTGCAC | 0.0744 |
| TGCGTCAA | -0.0324 |
| AACCTAGC | -0.191 |
| CCGTTGGA | -0.208 |
| AGAGAGAG | -0.0553 |
| GATTGTCA | -0.0327 |
| ATAACCCA | 0.273 |
| CAGACTAG | -0.115 |
| CCATCGAA | -0.0707 |
| CACCAGTG | -0.129 |
| ACGGCTGC | -0.128 |
| CTCAGGAG | -0.245 |
| ATAATCGA | 0.3 |
| CAGTTGGG | -0.121 |
| AGAGTGGG | -0.249 |
| ACTTCCGC | 0.0342 |
| CAGTTCCC | -0.269 |

| Sequence | PBM 8-mer E-score |
| --- | --- |
| CGCTGGAC | -0.195 |
| AGTTTCAC | 0.104 |
| ACGCATAC | 0.067 |
| ACCGTCGC | -0.272 |
| ACCTGTGG | -0.138 |
| CTATTGCA | -0.00129 |
| ACATGACT | -0.00631 |
| CGCAGTCA | -0.176 |
| AGGAAAAC | 0.0423 |
| CTCACTGC | -0.115 |
| ATGGCAGC | -0.0884 |
| CATGTAGG | -0.032 |
| ATGGATAA | 0.27 |
| AGGGAATC | -0.177 |
| ATAACGAT | 0.237 |
| GACTATTA | 0.305 |
| TTTAAAAA | 0.363 |
| AAATACTG | 0.244 |
| ACTGCGCG | -0.174 |
| AGGGAAGA | -0.201 |
| AGCCGTCG | -0.29 |
| CATACGGG | -0.159 |
